Screen size: about 410,000 compounds; about 6,400 (1.6%) were called active. The shares of active, inactive and inconclusive entries below differ from those in the screen. Calls follow the shape of the dose curve; as a rule, active = well fitted inhibition curve with a large enough effect; inconclusive = small, poorly fitted or top-dose-only effect; inactive = no such curve, though single readings can be large or run the other way. A potency beside an inconclusive call is a rough fit, not a confirmed value.
Biological target: Glucagon-like peptide 1 receptor (Homo sapiens) (UniProt P43220)
Test: qHTS of GLP-1 Receptor Inverse Agonists (Inhibition Mode); also: nearly all actives have a fitted effect of over 55% in size
Conditions: HEK293 GLP-1R CRE-luciferase, luminescence, 24 h, GLP-1R form is constitutively active; series mostly up to 38.3 µM
Method in brief: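 Stable HEK293 clone (constitutively active GLP-1R + cAMP-response luciferase); 200 cells/uL plated, 12 h pre-culture, compound 24 hr, 37 deg C/5% CO2; detection reagent 12 min RT; luminescence.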
Potency is read from the fitted curve at half-maximal effect; tags tell the direction and shape of the fitted curve.

UniProt P43220, sequence (P43220 whole entry, looked up): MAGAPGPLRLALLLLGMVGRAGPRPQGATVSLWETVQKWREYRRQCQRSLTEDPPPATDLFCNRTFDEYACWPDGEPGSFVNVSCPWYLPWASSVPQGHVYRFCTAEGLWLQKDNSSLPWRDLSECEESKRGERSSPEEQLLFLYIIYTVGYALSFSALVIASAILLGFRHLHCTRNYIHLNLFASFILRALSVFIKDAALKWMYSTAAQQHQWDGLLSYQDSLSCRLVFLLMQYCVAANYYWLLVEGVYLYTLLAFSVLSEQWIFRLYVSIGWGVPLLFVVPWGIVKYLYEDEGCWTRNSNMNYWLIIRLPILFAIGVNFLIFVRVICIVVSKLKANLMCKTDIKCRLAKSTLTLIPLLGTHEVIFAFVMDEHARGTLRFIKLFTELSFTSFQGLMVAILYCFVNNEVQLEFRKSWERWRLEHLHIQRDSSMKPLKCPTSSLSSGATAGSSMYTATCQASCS

Potency, inactive:
COc1ccc(CCn2c3c(c(=O)[nH]c2=O)C(NC(=O)c2ccccc2)(C(F)(F)F)C(=O)N3)cc1OC (stereo unspecified), COc1cc(C2c3c(-c4cc(Cl)c(C)cc4O)n[nH]c3C(=O)N2Cc2cccnc2)ccc1O (stereo unspecified), Cc1ccnc(NS(=O)(=O)c2ccc(NC(=O)c3ccc(Br)o3)cc2)n1

Potency, active:
COc1cc(OC)c(-c2c3cc(O)c(=O)cc-3oc3cc(O)c(O)cc23)cc1OC 4.47 µM

Potency, inconclusive:
C=CCN(Cc1ccc(Cl)s1)C(=O)c1cc(S(=O)(=O)N2CCOCC2)ccc1F 28.2 µM [inhibitor, single point], CCOC(=O)[C@]12CCCC=C1N(Cc1cccc3ccccc13)C(=O)[C@H](CC(=O)N1CCCC1)C2 10 µM [inhibitor, single point], COc1ccc(Cl)cc1CC1(C)C(=O)Nc2ccc(S(=O)(=O)NC3CCCCC3)cc21 (stereo unspecified) 15.8 µM [inhibitor, single point], COc1ccc(C(C)(O)c2nc(-c3ccc(N(C)C)cc3)cs2)cc1 (stereo unspecified) 22.4 µM [inhibitor, single point], CCCc1[nH]nc2c1C(C1CCCCC1)C(C#N)=C(N)O2 (stereo unspecified) 8.91 µM [inhibitor, partial curve, poor fit], O=C(CCN1C(=O)COc2ccccc21)NCCN1CCN(c2cccc(Cl)c2)CC1 8.91 µM [inhibitor, single point], CCc1cccc2c1NC(=O)C21N2CCCC2C(C(=O)c2ccc3ccccc3c2)C12C(=O)Nc1ccccc12 (stereo unspecified) 10 µM [inhibitor, single point], COc1cccc(CN2CCC(C)(Oc3cccc(Cl)c3)C2)c1OC (stereo unspecified) 28.2 µM [inhibitor, single point], COc1ccc(NC(=O)CN(C)C(=O)c2cc(C3CC3)nn2-c2ccccc2)cc1 10 µM [inhibitor, partial curve, poor fit], COc1ccc(CNC(=O)C(C)n2ccc3cc(S(=O)(=O)N4CCCCCC4)ccc32)cc1 (stereo unspecified) 7.94 µM [inhibitor, partial curve, poor fit], CN(Cc1ccc(C(C)(C)C)cc1)C(=O)c1ccc2c(c1)OCO2 17.8 µM [inhibitor, partial curve, poor fit], Cc1ccc(NP(=O)(Nc2ccc(C)cc2)Nc2ccc(C)cc2)cc1 7.94 µM [inhibitor, partial curve, poor fit]
